Data as given in the supplement of paper PMC8728848.
The list shows a part of the results.

How the values were obtained:
Test in all cases: glycan array binding signal (z-score within array); higher = stronger binding
Details in all cases: glycan notation: IUPAC condensed, linker removed
[1] = molecular target: Gal(b1-3)GlcNAc(b1-2)Man(a1-3)[Gal(b1-3)GlcNAc(b1-2)Man(a1-6)]Man(b1-4)GlcNAc(b1-4)GlcNAc
In short: (§1)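 The binding signal is a Z-score computed within each array. Data were drawn from 3228 arrays in the Consortium for Functional Glycomics database, restricted to those with a known protein sequence. Scores were averaged over arrays of the same protein sequence at different concentrations or buffers, and over linkers, and negative values can be taken as non-binding.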

[2] = molecular target: Gal(b1-3)GlcNAc(b1-2)Man(a1-3)[Gal(b1-3)GlcNAc(b1-2)Man(a1-6)]Man(b1-4)GlcNAc(b1-4)[Fuc(a1-6)]GlcNAc
In short: as §1

[3] = molecular target: Gal(b1-3)GlcNAc(b1-2)Man(a1-3)[GlcNAc(b1-4)][Gal(b1-3)GlcNAc(b1-2)Man(a1-6)]Man(b1-4)GlcNAc(b1-4)GlcNAc
In short: as §1

[4] = molecular target: Gal(b1-3)GlcNAc(b1-2)[Gal(b1-3)GlcNAc(b1-6)]Man(a1-6)[Gal(b1-3)GlcNAc(b1-2)Man(a1-3)]Man(b1-4)GlcNAc(b1-4)GlcNAc
In short: as §1

[5] = molecular target: Gal(b1-3)GlcNAc(b1-3)Gal(b1-3)GlcNAc
In short: as §1

[6] = molecular target: Gal(b1-3)GlcNAc(b1-3)Gal(b1-4)Glc
In short: as §1

[7] = molecular target: Gal(b1-3)GlcNAc(b1-3)Gal(b1-4)GlcNAc
In short: as §1

[8] = molecular target: Gal(b1-3)GlcNAc(b1-3)Gal(b1-4)GlcNAc(b1-2)Man(a1-3)[Gal(b1-3)GlcNAc(b1-3)Gal(b1-4)GlcNAc(b1-2)Man(a1-6)]Man(b1-4)GlcNAc(b1-4)GlcNAc
In short: as §1

[9] = molecular target: Gal(b1-3)GlcNAc(b1-3)Gal(b1-4)GlcNAc(b1-2)[Gal(b1-3)GlcNAc(b1-3)Gal(b1-4)GlcNAc(b1-6)]Man(a1-6)[Gal(b1-3)GlcNAc(b1-3)Gal(b1-4)GlcNAc(b1-2)Man(a1-3)]Man(b1-4)GlcNAc(b1-4)[Fuc(a1-6)]GlcNAc
In short: as §1

[10] = molecular target: Gal(b1-3)GlcNAc(b1-3)Gal(b1-4)GlcNAc(b1-3)Gal(b1-4)GlcNAc(b1-2)[Gal(b1-3)GlcNAc(b1-3)Gal(b1-4)GlcNAc(b1-3)Gal(b1-4)GlcNAc(b1-6)]Man(a1-6)[Gal(b1-3)GlcNAc(b1-3)Gal(b1-4)GlcNAc(b1-3)Gal(b1-4)GlcNAc(b1-2)Man(a1-3)]Man(b1-4)GlcNAc(b1-4)[Fuc(a1-6)]GlcNAc
In short: as §1

[11] = molecular target: Gal(b1-3)GlcNAc(b1-3)Gal(b1-4)GlcNAc(b1-6)[Gal(b1-3)GlcNAc(b1-3)]Gal(b1-4)Glc
In short: as §1

[12] = molecular target: Gal(b1-3)GlcNAc(b1-3)Gal(b1-4)[Fuc(a1-3)]GlcNAc
In short: as §1

[13] = molecular target: Gal(b1-3)GlcNAc(b1-3)Gal(b1-4)[Fuc(a1-3)]GlcNAc(b1-6)[Gal(b1-3)GlcNAc(b1-3)]Gal(b1-4)Glc
In short: as §1

[14] = molecular target: Gal(b1-3)GlcNAc(b1-3)GalNAc
In short: as §1

[15] = molecular target: Gal(b1-3)GlcNAc(b1-6)Gal(b1-4)GlcNAc
In short: as §1

[16] = molecular target: Gal(b1-3)GlcNAc(b1-6)GalNAc
In short: as §1

[17] = molecular target: Gal(b1-3)GlcNAc(b1-6)[Gal(b1-3)]GalNAc
In short: as §1

Gal(b1-3)GlcNAc6S = molecular target: Gal(b1-3)GlcNAc6S
In short: as §1

[18] = molecular target: Gal(b1-3)[Fuc(a1-4)]GlcNAc
In short: as §1

[19] = molecular target: Gal(b1-3)[Fuc(a1-4)]GlcNAc(b1-2)Man
In short: as §1

[20] = molecular target: Gal(b1-3)[Fuc(a1-4)]GlcNAc(b1-2)Man(a1-3)[Gal(b1-3)[Fuc(a1-4)]GlcNAc(b1-2)Man(a1-6)]Man(b1-4)GlcNAc(b1-4)[Fuc(a1-6)]GlcNAc
In short: as §1

[21] = molecular target: Gal(b1-3)[Fuc(a1-4)]GlcNAc(b1-3)Gal(b1-3)[Fuc(a1-4)]GlcNAc
In short: as §1

[22] = molecular target: Gal(b1-3)[Fuc(a1-4)]GlcNAc(b1-3)Gal(b1-4)[Fuc(a1-3)]GlcNAc
In short: as §1

[23] = molecular target: Gal(b1-3)[Fuc(a1-4)]GlcNAc(b1-6)GalNAc
In short: as §1

[24] = molecular target: Gal(b1-3)[GlcNAc(b1-6)]GalNAc
In short: as §1

[25] = molecular target: Gal(b1-3)[Neu5Ac(a2-6)]GalNAc
In short: as §1

[26] = molecular target: Gal(b1-3)[Neu5Ac(a2-6)]GlcNAc(b1-4)Gal(b1-4)Glc
In short: as §1

[27] = molecular target: Gal(b1-3)[Neu5Ac(b2-6)]GalNAc
In short: as §1

Gal(b1-4)Gal = molecular target: Gal(b1-4)Gal
In short: as §1

[28] = molecular target: Gal(b1-4)GalNAc(a1-3)[Fuc(a1-2)]Gal(b1-4)GlcNAc
In short: as §1

[29] = molecular target: Gal(b1-4)GalNAc(b1-3)[Fuc(a1-2)]Gal(b1-4)GlcNAc
In short: as §1

Gal(b1-4)Glc = molecular target: Gal(b1-4)Glc
In short: as §1

Gal(b1-4)Glc6S = molecular target: Gal(b1-4)Glc6S
In short: as §1

Gal(b1-4)GlcNAc = molecular target: Gal(b1-4)GlcNAc
In short: as §1

[30] = molecular target: Gal(b1-4)GlcNAc(a1-6)Gal(b1-4)GlcNAc
In short: as §1

Gal(b1-4)GlcNAc(b1-2)Man = molecular target: Gal(b1-4)GlcNAc(b1-2)Man
In short: as §1

[31] = molecular target: Gal(b1-4)GlcNAc(b1-2)Man(a1-3)Man(b1-4)GlcNAc(b1-4)GlcNAc
In short: as §1

[32] = molecular target: Gal(b1-4)GlcNAc(b1-2)Man(a1-3)[Gal(b1-4)GlcNAc(b1-2)Man(a1-6)]Man(b1-4)GlcNAc(b1-4)GlcNAc
In short: as §1

[33] = molecular target: Gal(b1-4)GlcNAc(b1-2)Man(a1-3)[Gal(b1-4)GlcNAc(b1-2)Man(a1-6)]Man(b1-4)GlcNAc(b1-4)[Fuc(a1-6)]GlcNAc
In short: as §1

[34] = molecular target: Gal(b1-4)GlcNAc(b1-2)Man(a1-3)[Gal(b1-4)GlcNAc(b1-2)Man(a1-6)][Gal(b1-4)GlcNAc(b1-4)]Man(b1-4)GlcNAc(b1-4)[Fuc(a1-6)]GlcNAc
In short: as §1

[35] = molecular target: Gal(b1-4)GlcNAc(b1-2)Man(a1-3)[Gal(b1-4)GlcNAc(b1-2)Man(a1-6)][GlcNAc(b1-4)]Man(b1-4)GlcNAc(b1-4)[Fuc(a1-6)]GlcNAc
In short: as §1

[36] = molecular target: Gal(b1-4)GlcNAc(b1-2)Man(a1-3)[GlcNAc(b1-2)Man(a1-6)]Man(b1-4)GlcNAc(b1-4)GlcNAc
In short: as §1

[37] = molecular target: Gal(b1-4)GlcNAc(b1-2)Man(a1-3)[GlcNAc(b1-4)][Gal(b1-4)GlcNAc(b1-2)Man(a1-6)]Man(b1-4)GlcNAc(b1-4)GlcNAc
In short: as §1

[38] = molecular target: Gal(b1-4)GlcNAc(b1-2)Man(a1-3)[Man(a1-6)]Man(b1-4)GlcNAc(b1-4)GlcNAc
In short: as §1

[39] = molecular target: Gal(b1-4)GlcNAc(b1-2)Man(a1-6)Man(b1-4)GlcNAc(b1-4)GlcNAc
In short: as §1

B1: Gal 3C (Homo sapiens), P17931 (protein)
chain: YGAPAGPLIVPYNLPLPGGVVPRMLITILGTVKPNANRIALDFQRGNDVAFHFNPRFNENNRRVIVCNTKLDNNWGREERQSVFPFESGKPFKIQVLVEPDHFKVAVNDAHLLQYNHRVKKLNEISKLGISGDIDLTSASYTMI
glycan array binding signal (z-score) [1]: -0.291 | glycan array binding signal (z-score) [2]: -0.259 | glycan array binding signal (z-score) [3]: -0.175 | glycan array binding signal (z-score) [4]: -0.204 | glycan array binding signal (z-score) [5]: -0.068 | glycan array binding signal (z-score) [6]: -0.322 | glycan array binding signal (z-score) [7]: -0.222 | glycan array binding signal (z-score) [8]: 1.31 | glycan array binding signal (z-score) [9]: 0.271 | glycan array binding signal (z-score) [10]: 1.95 | glycan array binding signal (z-score) [11]: -0.144 | glycan array binding signal (z-score) [12]: -0.244 | glycan array binding signal (z-score) [13]: -0.349 | glycan array binding signal (z-score) [14]: -0.251 | glycan array binding signal (z-score) [15]: -0.255 | glycan array binding signal (z-score) [16]: -0.312 | glycan array binding signal (z-score) [17]: -0.277 | glycan array binding signal (z-score) (Gal(b1-3)GlcNAc6S): -0.277 | glycan array binding signal (z-score) [18]: -0.306 | glycan array binding signal (z-score) [19]: -0.245 | glycan array binding signal (z-score) [20]: -0.276 | glycan array binding signal (z-score) [21]: -0.297 | glycan array binding signal (z-score) [22]: -0.283 | glycan array binding signal (z-score) [23]: -0.209 | glycan array binding signal (z-score) [24]: -0.251 | glycan array binding signal (z-score) [25]: -0.263 | glycan array binding signal (z-score) [26]: -0.34 | glycan array binding signal (z-score) [27]: -0.309 | glycan array binding signal (z-score) (Gal(b1-4)Gal): -0.349 | glycan array binding signal (z-score) [28]: 0.464 | glycan array binding signal (z-score) [29]: -0.313 | glycan array binding signal (z-score) (Gal(b1-4)Glc): -0.301 | glycan array binding signal (z-score) (Gal(b1-4)Glc6S): -0.309 | glycan array binding signal (z-score) (Gal(b1-4)GlcNAc): -0.31 | glycan array binding signal (z-score) [30]: -0.32 | glycan array binding signal (z-score) (Gal(b1-4)GlcNAc(b1-2)Man): -0.244 | glycan array binding signal (z-score) [31]: -0.287 | glycan array binding signal (z-score) [32]: -0.328 | glycan array binding signal (z-score) [33]: -0.22 | glycan array binding signal (z-score) [34]: -0.295 | glycan array binding signal (z-score) [35]: -0.329 | glycan array binding signal (z-score) [36]: -0.285 | glycan array binding signal (z-score) [37]: -0.327 | glycan array binding signal (z-score) [38]: -0.221 | glycan array binding signal (z-score) [39]: -0.321
